Experimental data taken from the supplement of paper PMC3334620.
Over roughly 33,000 sequences, “E-score (-0.5 to 0.5)” has its median near -0.035; the highest 2% begin near 0.34. This is one part of the list.

Target: T1, Mot3 (UniProt P54785)
T1 sequence: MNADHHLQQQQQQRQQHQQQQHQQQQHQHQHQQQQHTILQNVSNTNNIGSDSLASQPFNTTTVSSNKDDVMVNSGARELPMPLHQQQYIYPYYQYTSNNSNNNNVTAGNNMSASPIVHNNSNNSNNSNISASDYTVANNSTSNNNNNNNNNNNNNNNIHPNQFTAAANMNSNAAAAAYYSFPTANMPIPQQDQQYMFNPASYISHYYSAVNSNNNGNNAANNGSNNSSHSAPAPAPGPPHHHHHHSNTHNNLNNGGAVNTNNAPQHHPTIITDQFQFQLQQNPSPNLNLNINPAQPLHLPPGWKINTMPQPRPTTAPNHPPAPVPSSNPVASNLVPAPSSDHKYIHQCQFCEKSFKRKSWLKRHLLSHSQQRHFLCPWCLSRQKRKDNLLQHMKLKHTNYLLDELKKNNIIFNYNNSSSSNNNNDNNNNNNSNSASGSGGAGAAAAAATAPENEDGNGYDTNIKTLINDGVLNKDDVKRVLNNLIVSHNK
Assay: PBM E-score (8-mer binding enrichment) (E-score (-0.5 to 0.5)); higher = stronger / more preferred TF binding; most listed sequences are background and not binding sites
Conditions: protein concentration: 200 nM; construct: GST-full length
How it was run: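 Universal all-10-mer Agilent arrays, double-stranded by primer extension on fresh or once-stripped slides, were probed with about 100-200 nM GST-tagged yeast transcription factors made by PURExpress. Fluorescent anti-GST detected bound protein, and masliner normalised the scans. E-scores from the Universal PBM Analysis Suite were given to each ungapped eight-base word pooled with its reverse complement.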

| Sequence | PBM E-score |
| --- | --- |
| GATTGCCC | -0.0963 |
| CGTTTGTC | -0.0445 |
| GATGCACC | -0.207 |
| AGGACTAG | 0.00019 |
| GTCCGTGA | -0.148 |
| CGTCAAGC | -0.178 |
| AGACTGAT | -0.085 |
| GGTCGGTA | -0.102 |
| CGGGGGCC | -0.124 |
| CACTCTGC | 0.00552 |
| GTGGACCA | -0.133 |
| CAAGAAGG | 0.0725 |
| AATGTTCA | 0.184 |
| ACAGCACG | 0.056 |
| CGCGTCGA | 0.0669 |
| ACCGAGCG | -0.194 |
| ACGTACGT | 0.23 |
| ACTACTCA | 0.0874 |
| CTAAAACC | -0.00842 |
| CGGCCTAG | -0.273 |
| ATACAACG | 0.136 |
| ATCATTTC | -0.0571 |
| AACACCAA | 0.167 |
| AGTACAAG | 0.199 |
| GAGTAGCA | -0.142 |

| Sequence | PBM E-score |
| --- | --- |
| CAAGCCAA | 0.12 |
| CAACCTTA | 0.0744 |
| ATAGACTC | -0.217 |
| CTTAATTA | 0.0993 |
| CAGACTAC | -0.135 |
| GTGATGGA | -0.0675 |
| TCCGTGCA | 0.072 |
| ACATACGA | 0.315 |
| AGTACTGG | -0.0501 |
| ACATCGTA | 0.154 |
| ATTAAAGA | 0.00619 |
| TCGTTCCA | -0.0636 |
| ATGTTTGC | 0.176 |
| CGTTCCAC | -0.148 |
| ACACAGCG | 0.318 |
| AGGCCTGG | -0.2 |
| TAGTCCAA | -0.0422 |
| GGATGGAA | -0.292 |
| AATGGCCT | -0.286 |
| ACATCCGG | -0.207 |
| GCTTGGGA | -0.218 |
| CGGACGCC | -0.0906 |
| ATCAGCAG | -0.0659 |
| ACAGCGTC | 0.112 |
| AGGAGCCT | 0.176 |

| Sequence | PBM E-score |
| --- | --- |
| CACTGGAG | -0.209 |
| CAGGAATA | 0.128 |
| GGTCCGTA | -0.332 |
| CATTTTCA | 0.0951 |
| ACACTCCC | -0.108 |
| TAAGTACA | 0.2 |
| CGGACCTA | -0.0377 |
| GGAATAAA | -0.0165 |
| GGGTCCAA | -0.213 |
| ATCATAAA | 0.00499 |
| CCAAGTTA | 0.209 |
| TTCCGAAA | -0.102 |
| ATTTAATC | 0.0983 |
| CTATTAGC | 0.00709 |
| ACGATTTG | 0.0306 |
| AAATGCCC | -0.192 |
| ACCTTCCG | 0.0672 |
| AACTGGGT | -0.0369 |
| AATGAGTA | 0.184 |
| ATAGCCAA | -0.164 |
| GCGGTGCA | -0.279 |
| ATTAAATG | 0.166 |
| CTGTACCC | -0.0603 |
| GGTAAAGA | 0.128 |
| GGTTCGCA | -0.0826 |

| Sequence | PBM E-score |
| --- | --- |
| CTGGCTTA | -0.0828 |
| AATTTTAA | 0.155 |
| CGTCTGAA | -0.0897 |
| GCTATAAC | -0.0423 |
| AGGAAGGC | 0.217 |
| ATGTAACA | 0.373 |
| AAAGGAAA | 0.442 |
| CTCGGCGA | -0.184 |
| GTGTTTCA | 0.146 |
| GGGCCACC | -0.338 |
| GCCTGAAC | 0.303 |
| CCCCACCC | -0.267 |
| CCCTACGC | -0.0662 |
| CTTCAGAA | 0.0786 |
| CAATGTCC | -0.222 |
| CCATATTC | -0.155 |
| ATCAGCCC | -0.272 |
| ACCTTCGG | -0.18 |
| GTGCCAGA | -0.244 |
| AAGGTTGC | 0.0205 |
| ATCGATGG | -0.0234 |
| AGAGGCCT | -0.177 |
| GGCTCGAC | -0.22 |
| GCCTCACC | -0.0526 |
| AGTGTAAA | 0.28 |

| Sequence | PBM E-score |
| --- | --- |
| TATCTCGA | -0.0872 |
| CAGTATGC | -0.0987 |
| CGCTTGGA | -0.121 |
| GGTATGCA | -0.0141 |
| CGGTATAC | -0.177 |
| AGTTTTGA | 0.0108 |
| AAATCTAA | 0.0406 |
| GGGATTGA | -0.179 |
| CGGGGGGC | -0.295 |
| GGGCCCAA | -0.208 |
| CACGTGTC | 0.183 |
| ACTCCAAC | -0.0557 |
| ACTCTAAT | -0.143 |
| GATCCTCC | -0.303 |
| GCAGCAAA | -0.13 |
| AACTCATA | 0.035 |
| AGTTATAT | 0.111 |
| ACGCGCGA | 0.144 |
| CCGAGAGA | -0.222 |
| CGGACAGC | -0.205 |
| ACTCTAGG | -0.00613 |
| GAACTATA | 0.0585 |
| GTACGAAA | 0.0933 |
| ACTCACCT | -0.15 |
| GTTACCAA | 0.0576 |

| Sequence | PBM E-score |
| --- | --- |
| ACAGAGTC | 0.0655 |
| GTTGCTCA | -0.0143 |
| GAGTTTCC | -0.085 |
| AGCGCCAA | -0.225 |
| CGGGACAG | -0.18 |
| AAAGAGCA | -0.128 |
| CTGCCCGA | -0.126 |
| AAAAACCT | 0.191 |
| AGTATTAG | 0.0221 |
| CGGTGACC | -0.218 |
| AGCAACCA | -0.0726 |
| AAATCGGC | -0.156 |
| CACGGATG | 0.0568 |
| AACTGATG | 0.138 |
| CCATCACA | -0.0499 |
| AGGGCCTG | 0.015 |
| GAACATTA | 0.205 |
| ATTGCCTG | 0.482 |
| CGAGTCTA | -0.236 |
| TCAAATCA | 0.138 |
| CAAGGGGA | -0.136 |
| AAGCGCCC | -0.285 |
| AAAGGGTA | 0.045 |
| ACACCAGC | -0.0519 |
| ACGCTTAA | 0.114 |

| Sequence | PBM E-score |
| --- | --- |
| GCGCAAGC | -0.172 |
| ACTCGGTC | 0.0339 |
| TAGACTCA | -0.236 |
| ATAATAAA | 0.132 |
| CGCTTTGA | -0.205 |
| AGGGGACC | -0.258 |
| TACCATCA | -0.116 |
| GGGTAAGA | -0.146 |
| CTAATACC | -0.0621 |
| GCCTACTA | 0.257 |
| ATTAGTTG | 0.0815 |
| ACTAGTCC | -0.201 |
| AACTCGCG | 0.12 |
| ATCCTGAA | 0.0408 |
| AGACATCG | -0.14 |
| CGATTACA | 0.357 |
| ATGCCAAA | 0.0179 |
| CGGTAAAC | -0.0562 |
| AAGGTGGA | -0.124 |
| AATGGCGC | -0.108 |
| ACTGCTAT | -0.138 |
| CACAGCAA | 0.108 |
